Reference: PMC4336329 (PLoS ONE, 2015)
The whole screen tested about 310,000 compounds, of which about 14,000 (4.5%) showed an effect of 50% or more. Effects have a minus sign here. Some of the results follow.

molecular target: human ether-à-go-go-related gene (hERG) potassium channel (human, UniProt Q12809); assay: primary screen, population patch clamp on CHO cells stably expressing hERG
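Further: peak tail current of the secondary pulse compared with the same well before compound.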

Chain of human ether-à-go-go-related gene (hERG) potassium channel (Q12809 whole entry, looked up): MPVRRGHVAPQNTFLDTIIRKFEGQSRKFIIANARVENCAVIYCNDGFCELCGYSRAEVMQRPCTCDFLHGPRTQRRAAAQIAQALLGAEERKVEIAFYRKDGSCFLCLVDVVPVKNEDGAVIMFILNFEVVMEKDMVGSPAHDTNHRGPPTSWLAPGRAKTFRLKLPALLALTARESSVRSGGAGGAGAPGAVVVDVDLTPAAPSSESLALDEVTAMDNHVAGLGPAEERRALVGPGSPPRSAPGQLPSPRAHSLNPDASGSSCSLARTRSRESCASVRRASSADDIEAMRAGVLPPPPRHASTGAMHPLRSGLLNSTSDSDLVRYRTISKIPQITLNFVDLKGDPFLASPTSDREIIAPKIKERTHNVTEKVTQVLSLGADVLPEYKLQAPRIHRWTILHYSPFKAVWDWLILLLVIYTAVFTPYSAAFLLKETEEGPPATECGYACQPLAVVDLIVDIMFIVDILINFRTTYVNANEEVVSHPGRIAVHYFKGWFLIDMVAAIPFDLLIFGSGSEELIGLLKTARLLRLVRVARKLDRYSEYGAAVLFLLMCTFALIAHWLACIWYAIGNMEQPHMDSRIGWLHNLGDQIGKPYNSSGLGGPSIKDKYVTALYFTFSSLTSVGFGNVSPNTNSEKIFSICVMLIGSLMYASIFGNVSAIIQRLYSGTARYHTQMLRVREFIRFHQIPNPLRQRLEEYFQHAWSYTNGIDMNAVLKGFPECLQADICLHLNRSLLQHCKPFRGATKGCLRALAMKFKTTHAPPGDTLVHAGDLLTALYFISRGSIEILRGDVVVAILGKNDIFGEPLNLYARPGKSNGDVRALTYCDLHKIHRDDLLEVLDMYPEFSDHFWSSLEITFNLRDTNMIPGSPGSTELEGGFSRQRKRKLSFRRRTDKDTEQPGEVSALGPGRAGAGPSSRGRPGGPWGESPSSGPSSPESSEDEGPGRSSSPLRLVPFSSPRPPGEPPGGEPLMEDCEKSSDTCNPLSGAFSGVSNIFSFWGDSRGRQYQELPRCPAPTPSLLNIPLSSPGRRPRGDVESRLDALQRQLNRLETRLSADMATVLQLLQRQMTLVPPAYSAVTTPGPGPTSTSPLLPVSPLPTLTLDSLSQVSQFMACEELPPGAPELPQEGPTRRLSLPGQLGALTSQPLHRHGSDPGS

Compound | hERG current change (%, negative = inhibition) at 10uM [%]
CCOCCCNC(=S)N(CCN(CC)CC)Cc1cc2cc3c(cc2[nH]c1=O)OCCO3 | 7.75
Cc1ccc(-n2nc3c(=O)n(CCCC(=O)NCc4ccc(F)cc4)nc(C)c3c2C)cc1 | -76.5
CCOC(=O)C1Nc2ccc(C)cc2C2C=CCC12 (stereo not drawn) | 3.54
COC(=O)c1c(NC(=O)CS(=O)(=O)c2ccccc2)sc(C)c1C | -21.6
CC1CCN(c2ncnc3ccccc23)CC1.Cl | -11.8
C=CCNC(=O)CSc1nnc(-c2cccs2)o1 | -0.265
CCOC(=O)C1=C(CN2CCOCC2)NC(=O)NC1c1cccc([N+](=O)[O-])c1 (stereo not drawn) | -14.8
F[B-](F)(F)F.OCCC[NH+]=c1cc(-c2ccccc2)oc2ccc(Cl)cc12 | -79.1
CCCN(C(=O)c1c(CC)noc1C)c1c(N)n(Cc2ccccc2)c(=O)[nH]c1=O | 4.93
O=C(O)CSc1nc(-c2ccc(Cl)cc2)nc2c1oc1ccccc12 | 3.82
Cc1cc(C(=O)CN2C(=O)CCC2=O)c(C)n1Cc1ccccc1 | -2.44
NC(=O)COC(=O)C1c2ccccc2Oc2ccccc21 | -0.77
CCCCN(C)c1ccc([N+](=O)[O-])cc1 | -1.32
COC(=O)c1ccc(NC(=S)NCCC2=CCCCC2)cc1 | -4.67
Cc1ccc2nc(NNC(=O)c3ccc4c(c3)OCCO4)sc2c1 | 8.39
COCCOc1ccc(C(F)(F)F)cc1NC(=O)CN1C(=O)NC(C)(c2ccc3c(c2)OCO3)C1=O (stereo not drawn) | -4.8
COc1cccc(CNC(=O)C2CCCN(c3nn4c(=O)cc(C)nc4s3)C2)c1OC (stereo not drawn) | 5.44
O=C(NNc1c(Cl)cccc1Cl)c1c(F)cccc1Cl | 11.7
C/C(=N\NC(=O)c1cc2c(s1)CCC(C)C2)c1ccc[nH]1 (stereo not drawn) | 10
COc1ccc(C(C)(C)C)cc1NC(=O)COC(=O)c1ccc([N+](=O)[O-])o1 | 10.6
CN1C(=O)N(CC(=O)NCc2ccc(Cl)cc2Cl)C(=O)C12CCCCC2 | -27.8
COc1ccc(-c2ccc([C@H]3[C@@H]4C=CCC[C@@]4(C)C(=O)N3Cc3ccccc3)c(F)c2)cc1 | 8.98
Nc1nonc1-n1nnc(C(=O)N/N=C/C2CC=CCC2)c1CSc1ccccc1 (stereo not drawn) | -1.79

Compound | hERG current change (%, negative = inhibition) at 10uM [%]
CCc1ccc(OC)c(S(=O)(=O)N2CCN(C(=O)c3ccco3)CC2)c1 | 3.26
COc1cc(NC(=O)c2cccnc2)ccc1-c1cc2ccccc2oc1=O | -0.0945
O=C(Nc1nc2ccccc2c2nc3ccccc3n12)c1ccc(F)cc1 | 5.69
CCCS(=O)(=O)c1nc(S(=O)(=O)c2ccc(C)cc2)c(NCc2ccccn2)s1 | 2.9
CCOC(=O)C(=O)/C(C#N)=C/Nc1ccccc1 | 10.9
CCN(CC)C(=S)Nc1ccc([N+](=O)[O-])cc1 | -13.3
Br.CCCCCCCCCn1c2c(c(=N)c3c1CCC3)CCC2 | -74.1
CC(C)n1nc(C(=O)NC2CCCCCC2)c2ccccc2c1=O | -12
Cc1ccc(C)c(NS(=O)(=O)c2csc(C(N)=O)c2)c1 | 12.8
CCc1ccc2[nH]c(=O)c(CN(CCN(CC)CC)C(=O)NC3CCCCC3)cc2c1 | -66.6
Cn1c(=O)n(-c2cccc(Cl)c2)c(=O)c2c3c(sc21)COC(C)(C)C3 | 12.4
CCCCCOC(=O)Cc1c(O)c2ccccc2n(C)c1=O | -7.44
Cc1csc(C(=O)NCC(=O)NNC(=O)c2cccc(Cl)c2)c1 | 3.15
N#CCSc1nc(-c2ccccc2)nc2ccc(F)cc12 | 16.8
COc1ccc(C(=O)NNC(=O)CSc2nc3c([nH]2)c(=O)n(C)c(=O)n3C)cc1 | 34.2
CCC1CCCCN1C(=O)CSc1nc(N)c(NC(=O)c2ccco2)c(=O)[nH]1 (stereo not drawn) | 12.1
Cc1ccccc1NC(=O)Cn1c(C)nc2ccc(N)cc2c1=O | 7.11
N#Cc1cc2c(nc1SCC(=O)Nc1sc3c(c1C#N)CCC3)CCCCCC2 | 8.81
CC(c1ccc(F)cc1)n1cc(C(=O)NCCN(C)C)nn1 (stereo not drawn) | 37.5
COc1cccc(N=Nc2c(=O)[nH]n3c(=O)c4c([nH]c23)CCC4)c1 | 25
O=C(COC(=O)C1COc2ccccc2O1)NC1CCS(=O)(=O)C1 (stereo not drawn) | 5.86
CCOc1cc(CN2CCN(c3ccc(C(C)=O)cc3)CC2)ccc1OC | -23.5
CCCC(=O)NCc1ccccc1Cl | -8.63

Compound | hERG current change (%, negative = inhibition) at 10uM [%]
COC(=O)N1CC(C)N(C(=O)OC)CC1C (stereo not drawn) | 12.7
CCCc1ncc(C(O)(c2ccccc2)c2ccccc2)n1C.Cl | 3.89
CC(C)OC1(c2ccccc2)OC(=O)c2ccccc21 (stereo not drawn) | -25.8
COC(=O)c1sccc1Oc1c(Cl)cccc1[N+](=O)[O-] | -0.801
Cc1ccc(N2CC(C(=O)Nc3ccccc3C(=O)NC3CCCCC3)CC2=O)cc1 (stereo not drawn) | -5.81
COc1ccc(-n2nc(C(=O)NCC(=O)Nc3ccc(F)cc3)c3ccccc3c2=O)cc1 | 21
COc1cc(OC)cc(C(=O)OCC(=O)NCc2ccc3c(c2)OCO3)c1 | 12.9
CC(=O)Nc1ccc(S(=O)(=O)NC2CC3CCC2C3)cc1 (stereo not drawn) | -0.107
Cc1ccc(CCNC(=O)C2CCC(CNc3c(N4CCC(C)CC4)c(=O)c3=O)CC2)cc1 (stereo not drawn) | -3.48
CCCn1c(SCCN2C(=O)c3ccccc3C2=O)n[nH]c1=O | 9.04
Cc1ccc(NC(=O)COC(=O)CN2C(=O)C3CCCCC3C2=O)cc1S(=O)(=O)N1CCOCC1 (stereo not drawn) | -4.62
CCCOC(=O)Cn1cnc2scc(-c3ccc(OC)cc3)c2c1=O | 5.41
CCCCc1cc(-c2n[nH]c(=S)o2)c2ccccc2n1 | 16
COC(=O)c1csc2c(C(F)(F)F)cc(N3CCN(C(=O)Nc4ccccc4)CC3)nc12 | 18.9
O=S(=O)(NCc1ccco1)c1ccc(Cl)nc1 | 3.9
COc1cccc(-c2nc(-c3ccccc3)[nH]c(=O)c2C#N)c1 | 19.2
O=C1C(C=NCc2ccco2)=C(O)c2ccccc21 | -12
Cc1cccc(NC(=O)c2ccc(Cl)nc2)n1 | 24.8
CC(=O)c1ccccc1C(=O)N1CCCC(CNC(=O)c2ccccc2Cl)C1 (stereo not drawn) | 9.64
Cc1c(C(=O)N2CCN(c3cccc(Cl)c3)CC2)cccc1[N+](=O)[O-] | -42.5
Cc1nc2cc(-c3ccccc3)sc2c(=O)n1N | 14.5
CCOc1ccc(S(=O)(=O)N2CCOCC2)cc1[N+](=O)[O-] | -52.2
CC(C)Nc1ccccc1 | 12.2

Compound | hERG current change (%, negative = inhibition) at 10uM [%]
COC(=O)c1ccn(CC(=O)NC2CCCCC2)n1 | 16.5
O=C(NCCN1CCOCC1)c1cccc(S(=O)(=O)N2CCCC2)c1 | 6.43
O=C(O)COCC(=O)N1CCN(C2c3ccccc3-c3ccccc32)CC1 | 8.11
O=C(Oc1cccc(NC(=O)c2ccco2)c1)c1cccc(S(=O)(=O)N2CCCCC2)c1 | 6.51
CCOc1ccc(/C=N/NC(=O)C(=O)NCc2ccco2)cc1 | -0.455
CCOC(=O)N1CCN(C(=O)CSc2nc3c(c(=O)n2-c2ccccc2OC)SCC3)CC1 | -8.93
COc1cc2c(c(OC)c1OC)-c1ccc(NC(=O)c3ccc(F)cc3)c(=O)cc1[C@@H](NC(C)=O)CC2 | -17.1
CC(=O)c1cccc(NC(=S)NCc2ccccc2)c1 | 12
C[NH+]1CCC2(CC1)C(C#N)=C(N)NC([S-])=C2C#N | -2.36
COc1ccc(-c2nn(C)c3sc(C(=O)NCc4ccco4)cc23)cc1OC | 12.5
COc1ccc(C(=O)NC(=S)NC2CCSC2=O)cc1 (stereo not drawn) | -22
OCC(O)CN1CCCC1 (stereo not drawn) | 16.6
Cc1ccc(-n2ncc3c2CC(C)(C)CC3NC(=O)CCc2ccncc2)cc1 (stereo not drawn) | -72.2
FC(F)(F)c1cc(Oc2ccc(Cl)cc2)nc(-c2ccccn2)n1 | 22.9
O=C(NC1CCN(C(=O)C2CCCCC2)CC1)c1ccccc1 | 7.98
CCc1nnc(NC(=S)Nc2ccccc2)s1 | 15.9
COc1ccc(Nc2nc3ccccc3nc2NS(=O)(=O)c2cccs2)c(OC)c1 | 8.29
COc1ccc(C)cc1-n1nnnc1SC/C(O)=C(\C#N)c1nc2ccccc2[nH]1 | 9.03
CCN(CC)C(=O)C(C)N(C#N)c1nc(C)cc(C)n1 (stereo not drawn) | -0.693
CC(=O)Nc1ccc(S(=O)(=O)Nc2ccc(F)c([N+](=O)[O-])c2)cc1 | 14.9
Cc1ccc(NC(=O)Nc2ccc3c(c2)OCO3)nc1 | 13.1
